# The campaign covered roughly 310,000 compounds. About 2,200 (0.71%) showed an effect of 50% or more. The effect is printed as a negative number. The list shows a part of the results.
# Target: human ether-à-go-go-related gene (hERG) potassium channel (human, UniProt Q12809)
# Assay: primary screen, population patch clamp on CHO cells stably expressing hERG
# human ether-à-go-go-related gene (hERG) potassium channel, sequence (Q12809 whole entry, looked up): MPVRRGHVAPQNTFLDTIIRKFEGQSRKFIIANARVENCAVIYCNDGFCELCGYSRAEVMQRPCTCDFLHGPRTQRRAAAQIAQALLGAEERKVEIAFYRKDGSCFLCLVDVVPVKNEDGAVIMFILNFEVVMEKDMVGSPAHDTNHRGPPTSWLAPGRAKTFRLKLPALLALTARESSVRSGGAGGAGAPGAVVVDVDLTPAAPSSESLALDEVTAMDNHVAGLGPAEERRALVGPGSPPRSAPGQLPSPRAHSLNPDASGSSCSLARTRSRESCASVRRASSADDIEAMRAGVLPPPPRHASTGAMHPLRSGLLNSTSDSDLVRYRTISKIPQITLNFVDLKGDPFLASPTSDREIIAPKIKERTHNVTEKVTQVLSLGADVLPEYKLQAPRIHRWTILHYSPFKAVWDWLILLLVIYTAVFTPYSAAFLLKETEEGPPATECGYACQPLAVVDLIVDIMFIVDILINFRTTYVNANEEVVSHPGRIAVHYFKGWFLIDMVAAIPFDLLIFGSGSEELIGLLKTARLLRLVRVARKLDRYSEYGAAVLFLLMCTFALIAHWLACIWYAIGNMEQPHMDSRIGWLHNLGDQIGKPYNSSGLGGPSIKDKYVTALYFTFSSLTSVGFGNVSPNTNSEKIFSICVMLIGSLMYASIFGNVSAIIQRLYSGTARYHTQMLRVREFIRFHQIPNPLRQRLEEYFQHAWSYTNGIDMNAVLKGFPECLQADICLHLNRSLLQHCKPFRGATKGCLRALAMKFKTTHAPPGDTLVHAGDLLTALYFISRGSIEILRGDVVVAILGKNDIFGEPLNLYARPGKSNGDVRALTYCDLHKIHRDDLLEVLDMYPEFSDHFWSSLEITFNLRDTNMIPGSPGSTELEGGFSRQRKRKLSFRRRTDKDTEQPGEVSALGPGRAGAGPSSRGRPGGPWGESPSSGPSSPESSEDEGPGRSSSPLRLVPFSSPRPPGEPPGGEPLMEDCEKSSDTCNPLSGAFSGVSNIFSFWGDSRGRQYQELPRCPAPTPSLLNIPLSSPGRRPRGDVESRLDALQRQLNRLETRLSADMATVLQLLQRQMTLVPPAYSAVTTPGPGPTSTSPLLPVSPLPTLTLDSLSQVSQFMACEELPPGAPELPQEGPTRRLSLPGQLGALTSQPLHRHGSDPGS
row,Compound,"hERG current change (%, negative = inhibition) at 1uM [%]"
1,Cc1cc(C(=O)O)ccc1-c1ccc(/C=C2\NC(=O)N(Cc3ccccc3Cl)C2=O)o1,14.7
2,COc1ccc(NS(=O)(=O)c2ccc(N3CCOCC3)c(NC(=O)c3ccccc3Br)c2)cc1,-1.4
3,CCOC(=O)N1CCN(C(=O)/C(=C\c2ccc(SC)cc2)NC(=O)c2ccccc2)CC1,-26.3
4,Cc1cccc(NC(=O)CSc2nnc(CNC(=O)c3ccco3)o2)c1,17.5
5,Cc1cccc2cc(CN(CC3CCCO3)C(=S)Nc3ccccc3)c(=O)[nH]c12 (centres unmarked),12.6
6,Cc1cccc(N2CCN(c3ccc(NC(=O)/C=C\C(=O)O)cc3)CC2)c1,15.6
7,Cc1cc(C(=O)COC(=O)/C=C/c2ccc(F)cc2)c(C)n1C,8.75
8,CN(C)c1ncc(S(=O)(=O)c2ccc(Cl)cc2)c(-c2ccccc2)n1,5.25
9,Cc1cccc(C(=O)NC2CCN(CC(=O)Nc3ccccc3Cl)CC2)c1,-4.14
10,Clc1ccc(CSc2nnc(/C=C/c3ccccc3)o2)c(Cl)c1,8.39
11,COc1ccc(CN(C)CC(O)COC(c2ccc(OC)cc2)c2ccc(OC)cc2)cc1 (centres unmarked),-80.8
12,CN(Cc1ccccc1)S(=O)(=O)c1cc2c3c(c1)CCN3C(=O)CC2,6.98
13,COc1ccc(-c2noc(C3CCCN(C(=O)c4cccc(F)c4)C3)n2)cc1 (centres unmarked),9.08
14,COc1ccc(NC(=O)CCS(=O)(=O)c2cc3c(cc2Cl)NC(=O)CO3)cc1OC,19.1
15,CCOC(=O)CSc1nc2nc(C)cc(C)n2n1,7.26
16,COC(=O)CSc1nc(NC#N)nc(NC(C)C)n1,19.3
17,O=C(Nc1ccccc1OC(F)F)C1CCCN1C(=O)c1cccs1 (centres unmarked),13.9
18,CCOC(=O)C1=C(Nc2ccc(Br)cc2)CC(C)(O)C(C(=O)OCC)C1c1ccccc1 (centres unmarked),12.3
19,Cn1cnc([N+](=O)[O-])c1Sc1n[nH]c(N)n1,10.5
20,CN(Cc1nccs1)C(=O)c1ccc(OC2CCN(Cc3ccccn3)CC2)cc1,1.97
21,CCOC(=O)Cc1nn(Cc2nc(-c3ccc(C)cc3)cs2)c(=O)c2ccccc12,10
22,Cc1sc2ncn(CCC(=O)O)c(=O)c2c1C,11.1

row,Compound,"hERG current change (%, negative = inhibition) at 1uM [%]"
1,CCCCC(C(=O)NC(=O)NCc1ccccc1)N1C(=O)c2ccccc2C1=O (centres unmarked),16.7
2,COc1ccc(-n2c(-c3ccccc3)nc3ccccc3c2=O)cc1,-1.46
3,CC1CCN(S(=O)(=O)c2ccc(S(=O)(=O)N3CCCC3)cc2)CC1,-3.5
4,CC(C)(C)C(=O)N1NC(=Nc2ccccc2)SC1(C)C,7.38
5,Cc1ccc(Cc2cnc(NC(=O)C3=NCCN3)s2)cc1,6.73
6,Cc1cc(C)n2ncc(/C(N)=N/OC(=O)Nc3ccc(Cl)cc3)c2n1,13.4
7,Cn1c(=O)c2c(SCC(=O)NC3CCCC3)nc(CC(C)(C)C)nc2n(C)c1=O,12.4
8,Cc1ccc(CNC(=O)CO/N=C/c2ccc(C(C)(C)C)cc2)cc1,13.2
9,Nc1c2c(nc3ccccc13)CSCC2,-11.5
10,CC1=C(C(=O)Nc2ccccn2)C(c2ccccc2Cl)NC(=S)N1 (centres unmarked),7.21
11,Cc1n[nH]c(C)c1S(=O)(=O)N1CCN(C2CCCCC2)CC1,8.7
12,CCCCS(=O)(=O)N1CCCC(C(=O)NCC2CCCO2)C1 (centres unmarked),6.22
13,Cc1ccc(NC(=O)c2sc3nc[nH]c(=O)c3c2C)c(C)c1,7.84
14,C=C(C)CNC(=S)Nc1cccc(S(=O)(=O)NC2=NCCC2)c1,7.05
15,O=C(O)CSC1CC(=O)N(c2cccc(Cl)c2)C1=O (centres unmarked),4.59
16,O=C(CSC(=S)N1CCCC1)Nc1cc2c(cc1Br)OCCO2,13.3
17,O=C(COc1ccccc1-c1ccccc1)NN=C1CCCC1,9.96
18,O=C(CSCc1c(Cl)cccc1Cl)Nc1nccs1,-4.34
19,OCCN1CCN(c2ncnc3c2sc2nc(N4CCOCC4)c4c(c23)CCC4)CC1,6.82
20,Cc1onc(-c2ccc(Cl)cc2)c1-c1ccnn1S(=O)(=O)c1cccc(C(F)(F)F)c1,3.61
21,CCCCOCCCNC(=O)/C=C/c1ccccc1Cl,5.29
22,COc1cccc(/C=N/NC(=O)CNC(=O)c2cccs2)c1O,15.2

# Reference: paper PMC4336329 (PLoS ONE, 2015)
